For 27 compounds, inhibition results are on record in PubChem BioAssay AID485344 (National Center for Advancing Translational Sciences (NCATS), 2010).

The campaign covered roughly 340,000 compounds. About 6,900 (2%) were called active. Cut-off read from the data, not from the text of the source: active = inhibition above about 30%; inactive = below that, where a call was filed. Only a part is listed here, and it is no random draw. Where no call is shown, the source filed none.

Sequence of UniProt P14416 (P14416 whole entry, looked up): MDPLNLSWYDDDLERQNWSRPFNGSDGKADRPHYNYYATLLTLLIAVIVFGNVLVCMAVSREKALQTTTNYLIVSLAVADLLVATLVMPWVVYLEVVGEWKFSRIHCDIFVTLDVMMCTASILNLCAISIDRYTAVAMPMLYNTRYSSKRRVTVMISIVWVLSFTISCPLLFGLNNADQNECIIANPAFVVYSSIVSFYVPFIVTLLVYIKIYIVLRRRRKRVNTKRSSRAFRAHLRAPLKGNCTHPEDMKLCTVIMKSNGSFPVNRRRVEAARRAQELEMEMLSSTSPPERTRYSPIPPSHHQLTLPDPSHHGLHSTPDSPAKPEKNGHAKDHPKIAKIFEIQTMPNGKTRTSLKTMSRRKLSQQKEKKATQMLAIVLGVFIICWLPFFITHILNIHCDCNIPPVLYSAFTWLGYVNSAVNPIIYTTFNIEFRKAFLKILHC

The target of this assay is D(2) dopamine receptor (Homo sapiens) (UniProt P14416). Description: HTS Assay for Allosteric Antagonists of the Human D2 Dopamine Receptor: Primary Screen for Antagonists. Note: 0% is about no effect. To be noted: HEK293 TREx D2 cells, calcium flux, dopamine EC80; at 10 µM; stronger effect = higher value. Summed up:
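Cells plated overnight at 30 C with tetracycline; no-wash calcium dye, 30–90 min RT; 10 s baseline; compound pinned; 180 s read; EC80 dopamine added; another 180 s read.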
In general terms: Calcium assays in cells follow changes in intracellular calcium, usually with a dye or a luminescent sensor.
A word on the inhibition: it is the relative decrease from the control value, in per cent. With `CCOC(=O)c1ccc(CN(Cc2ccc(OC)cc2)S(=O)(=O)c2cccc(C(F)(F)F)c2)cc1`, the inhibition was -1.3%.

For `O=C(NC1CCN(Cc2ccccc2)CC1)c1cccc(OC(F)F)c1`, the inhibition was active: 81%.

Take `CC1=C(C(=O)Nc2ccccc2C)C(c2cccs2)n2nc(SCc3cc(C)ccc3C)nc2N1` (configuration not stated): the inhibition was 25.8%.

Consider `O=c1c(N2CCc3ccccc3C2)csc2ccc(F)cc12`, for which the inhibition is -19.7%.

On to `CCOc1ccc(N(CC)C(=O)c2noc3c2COc2ccc(C)cc2-3)cc1`, for which the inhibition turned out to be 17%.

For the compound `COc1ccccc1C(=O)Nc1c(C(=O)c2ccccc2)oc2ccccc12`, the inhibition is -8.54%.

Take `Cc1ccc(CNC(=O)c2c(-c3ccc(Br)cc3)noc2C)o1`: the inhibition was found to be 5.64%.

Take `CCOc1ccccc1NC(=O)C1=C(C)Nc2ncnn2C1c1sccc1C` (configuration not stated): the inhibition turned out to be 14.5%.

As for `O=C(CCCn1c(=O)c2cccn2c2cccnc21)Nc1ccccc1C(F)(F)F`, the inhibition turned out to be 3.32%.

For `Clc1ccc(/C=C\c2nccc3c2[nH]c2ccccc23)cc1`, the inhibition was active: 66.4%.

Regarding `CN1CCCN(Cc2ccc(Cl)cc2Cl)CC1`, the inhibition was active: 34.6%.

Take `CCOC(=O)Cn1c(=O)n(CC2CCCO2)c2nc(-c3ccccc3Cl)nc(C(N)=O)c21` (configuration not stated): the inhibition was -6.3%.

Take `COc1cccc(NC(=O)CSC2=Nc3ccccc3C3=NC(CC(=O)NCc4cccs4)C(=O)N23)c1` (configuration not stated): the inhibition amounted to 4.94%.

For `COc1ccc(CNC(=O)CSCc2cnn(-c3ccccc3)c2-n2cccc2)cc1OC`, the inhibition turned out to be 3.64%.

Take `Cc1cccc(N2CCN(C(=O)c3cc4c(=O)[nH]c5ccc(C)cc5c4s3)CC2C)c1` (configuration not stated): the inhibition worked out at 10.5%.

For `CCCN(CCC)C(=O)c1c[nH]c2ccc(S(=O)(=O)N(C)c3ccc(OCC)cc3)cc2c1=O`, the inhibition came to 19.8%.

Consider `Cc1c(CCC(=O)NCc2ccc(F)cc2)c(=O)oc2cc(O)ccc12`, for which the inhibition was -0.825%.

For the compound `COc1ccc(CCNC(=O)c2ccc3c(Cl)c4c(nc3c2)CCCC4)cc1OC`, the inhibition was -1.27%.

With `Cc1ccc2oc(C(=O)Nc3nc(-c4ccc(F)cc4)ns3)c(C)c2c1`, the inhibition came to 1.85%.

With `CCc1ccc(C(=O)c2cn(CC(=O)Nc3ccc4c(c3)OCCO4)c3ccc(CC)cc3c2=O)cc1`, the inhibition came out at 12.5%.

Consider `Cc1ccccc1OCC(=O)Nc1ccc(C(=O)OCc2cc(=O)n3c(C)csc3n2)cc1`, for which the inhibition is -9.44%.

In the case of `C#CC(C)(CC)NC(=O)Cn1nnc(-c2ccc(OCc3ccccc3Cl)cc2)n1` (configuration not stated), the inhibition is 2.54%.

In the case of `Cc1ccc(NC(=O)Cn2c(SCc3cccc(F)c3)nc3ccncc32)c(C)c1`, the inhibition was -9.48%.

Turning to `CC(C)(C)c1ccc(C(=O)Nc2nc3nc(-c4ccccc4)cc(=O)n3[nH]2)cc1`, the inhibition was -0.665%.

For `COc1ccc(Br)cc1CNC(=O)CN1C(=O)CCCc2ccccc21`, the inhibition is -0.965%.

Consider `COc1ccc(C(=O)NCC(c2cccnc2)N2CCN(c3ccccc3OC)CC2)cc1` (configuration not stated), for which the inhibition stood at 9.22%.

On to `COc1ccc(C(C(=O)Nc2ccc(C(C)C)cc2)N(C)C(=O)Cc2cccs2)cc1` (configuration not stated), for which the inhibition stood at 3.32%.
